This is an account of results in US20260284066A1, “TYK2 INHIBITORS AND COMPOSITIONS AND METHODS THEREOF” (LYNK PHARMACEUTICALS CO. LTD., priority 2023, published 2026).

This experiment concerns Ba/F3-FL-TYK2-P760L cells. The experiment can be described thus: Anti-proliferative assay in Ba/F3-FL-TYK2-P760L cells (Cell-Titer Glo). Type of experiment: cell-based. As to conditions: 72 h.

In turn, “(R*)-6(Cyclopropanecarboxamido)-4((7-methoxy-1-(1,1,1-trifuoropropan-2-yl)-1H-pyrazolo[4,3-c]pyridin-6-yl)amino)-N-(methyl-d3)nicotinamide [Example 3A]” registered an IC50 of 1800 nM.

Broadly, the IC50 is the concentration needed to halve the response being measured. Read a high IC50 as a need for much substance.
